Test results as given in patent publication US10793631B2, “Human PAC1 antibodies” (AMGEN INC., priority 2013, dated 2020).

Legend:
Type in all cases: cell-based
human PAC1 (hPAC1) = target: T1, human PAC1 (hPAC1) (Homo sapiens, UniProt P41586); experiment: cAMP assay, cells expressing recombinant human PAC1 (hPAC1-CHO); conditions: agonist activity of anti-PAC1 antibody in cAMP assay
T1 construct: expressed in transfected cells; host or cells: CHO (PAC1-CHO; also hPAC1-CHO-K1, Perkin Elmer ES-272-A)
T1 sequence (P41586 21-468): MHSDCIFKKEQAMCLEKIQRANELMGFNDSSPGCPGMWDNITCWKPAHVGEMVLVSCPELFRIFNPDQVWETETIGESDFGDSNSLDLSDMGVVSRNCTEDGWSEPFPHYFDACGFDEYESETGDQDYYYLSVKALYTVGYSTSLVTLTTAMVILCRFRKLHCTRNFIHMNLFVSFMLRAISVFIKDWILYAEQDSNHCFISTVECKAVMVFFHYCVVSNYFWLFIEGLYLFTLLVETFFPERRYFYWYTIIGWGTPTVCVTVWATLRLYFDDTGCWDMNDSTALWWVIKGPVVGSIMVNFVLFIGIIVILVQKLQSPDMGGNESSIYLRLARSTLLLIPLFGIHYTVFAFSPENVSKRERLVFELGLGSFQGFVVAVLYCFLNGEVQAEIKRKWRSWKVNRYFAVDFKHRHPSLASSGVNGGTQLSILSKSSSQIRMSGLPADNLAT
Procedure: (§1) Selected hPAC1 antibodies as described herein were screened in an in vitro PAC1 mediated cAMP assay to determine intrinsic potency.
(§2) PAC1-CHO, Rat PAC1, and Cyno PAC1 cells were grown in Dulbecco's modified Eagle's medium (DMEM) (Gibco Cat #11965), 10% dialyzed FBS (Invitrogen 26400044), 1% MEM non-essential amino acids (Invitrogen 11140-050), 1% sodium pyruvate (Invitrogen 11360070), 1% glutamine/pen/strep (Invitrogen 10378016).
(§3) The cells were grown under the conditions described above and harvested at 80-90% confluence. The cells were dissociated with VERSENE (1:5000, Invitrogen, 15040-060) for SHSY5Y cells; with 0.05% Trypsin-EDTA (1×), Phenol Red (Invitrogen, 25300054), and were then centrifuged in a Beckman GS-6R unit at 1000 rpm for 5 minutes at 4° C. The pellets were resuspended with cell freezing medium (Invitrogen, 12648010). The cells were then counted using a Z1 Coulter Particle Counter and adjusted to desired concentration (5E6/ml or 2E6/ml) and aliquots were stored at −80° C. or in liquid nitrogen until use. Concentrations for PAC1 cells, hVPAC1/2 CHO were 4K/10 μl; the others at 2K/10 μl; for SKNMC and L6, the concentration was 1K/10 μl.
(§4) The LANCE Ultra cAMP assay kit (PerkinElmer, Boston, Mass.) was used in the screening. The assays were performed in triplicate in white Optiplates half-area 96-well plates (Costar 3642) in a total volume of 40 μL. […]

[1] = target: T2, hPAC1 short (hPAC1 with amino acid residues 89-109 deleted) (Homo sapiens, UniProt P41586); experiment: cAMP assay, cells expressing recombinant hPAC1 short
T2 construct: range used: 1-88, 110-468; expressed in transfected cells
T2 sequence (P41586 21-447 isoform P41586-3): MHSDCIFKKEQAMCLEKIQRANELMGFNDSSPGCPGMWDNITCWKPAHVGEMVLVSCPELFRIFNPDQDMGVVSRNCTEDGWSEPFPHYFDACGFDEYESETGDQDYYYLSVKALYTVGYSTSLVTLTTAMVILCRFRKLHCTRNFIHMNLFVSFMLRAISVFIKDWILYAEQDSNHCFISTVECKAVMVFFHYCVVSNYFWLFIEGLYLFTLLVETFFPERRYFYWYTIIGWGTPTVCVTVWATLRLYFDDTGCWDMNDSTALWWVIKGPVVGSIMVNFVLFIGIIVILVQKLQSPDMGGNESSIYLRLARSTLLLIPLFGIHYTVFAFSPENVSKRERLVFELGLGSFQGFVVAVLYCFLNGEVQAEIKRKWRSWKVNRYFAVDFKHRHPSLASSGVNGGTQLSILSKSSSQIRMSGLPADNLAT
Procedure: as §1, §2, §3, §4

human platelets = experiment: Platelet phagocytosis assay, human; conditions: up to 3 mg/ml, lowest positive concentration
Procedure: (§5) To address any potential Fc gamma receptor induced platelet depletion, a subset of the antibodies described herein was tested in a Phagocytosis Assay.
(§6) In brief, whole blood samples from healthy cynomolgus donors were centrifuged at 170×g for 15 minutes with no braking. Platelet-rich plasma (PRP) was collected from the top layer. The bottom layers of the sample were centrifuged at 2000×g for 10 minutes to obtain the platelet-poor plasma (PPP) layer and buffy coat. Platelets in the PRP fraction were labeled with 20 μM Cell Tracker Green CMFDA for 30 minutes at room temperature. Labeled platelets were washed with PBS, resuspended in RPMI-1640 with 10% FBS, and adjusted to a concentration of 1×10^8 cells/mL. PBL were prepared from the buffy coat obtained from the same donor. Erythrocytes were lysed with BD Pharm-lyse following the protocol provided by the vendor. […]
(§7) The phagocytosis reaction was initiated by incubating 100 μL each of CMFDA-labeled platelets and PBMC with test articles in the dark. […] Extracellular fluorescence was quenched by incubating 2 minutes with 0.1% trypan blue. […] After washing, the cells were analyzed by a BD LSRII Flow Cytometer (FIG. 2). Based on previous experiences, monocytes phagocytosing platelets have CMFDA median fluorescence intensity values at least 2-fold or higher than negative controls (either a-SA or a-DNP) (2).

cynomolgus platelets = experiment: Platelet phagocytosis assay, cynomolgus; conditions: up to 3 mg/ml, lowest positive concentration
Procedure: as §5, §6, §7

Agonist activity (human PAC1 (hPAC1)): >10 µM
IC50 [1]: 4.7 ± 2.4 nM
B1: 29B: anti-hPAC1 antibody, LC-11 and HC-40; aglycosylated IgG1 (antibody)
heavy: QVQLVESGGGVVQPGRSLRLSCAASGFTFSRYAMHWVRQASGKGLEWVAVISYDGSNKYYADSVKGRFTISRDNSKNTLYLLMSSLRAEDTAVFYCARGYDILTGYPDYWGQGTLVTVSSASTKGPSVFPLAPSSKSTSGGTAALGCLVKDYFPEPVTVSWNSGALTSGVHTFPAVLQSSGLYSLSSVVTVPSSSLGTQTYICNVNHKPSNTKVDKKV[no letters for human IgG1 Fc with changes]
light: DIQLTQSPSFLSASVGDRVTITCRASQSIGRSLHWYQQKPGKAPKLLFKYASQSLSGVPSRFSGSGSGTEFTLTISSLQPEDFATYYCHQSSRLPFTFGPGTKVDIKRTVAAPSVFIFPPSDEQLKSGTASVVCLLNNFYPREAKVQWKVDNALQSGNSQESVTEQDSKDSTYSLSSTLTLSKADYEKHKVYACEVTHQGLSSPVTKSFNRGEC
modifications: aglycosylated IgG1; Synthetic HC-40 polypeptide; Synthetic LC-11 polypeptide
notes: anti-hPAC1 antibody, LC-11 and HC-40; aglycosylated IgG1
human platelet (human platelets): Negative
cyno platelet (cynomolgus platelets): Negative
